# Measured values: the supplement of paper PMC7826260
# This is one part of the list. Viral Rep nickase domains cut single-stranded DNA in vitro at 3 µM enzyme and 37 °C for 1 h; the strands have 90 letters, of which the middle is given. Uncut reads are compared with the no-enzyme pool on a log2 scale; the lower, the more was cut; hits are not called. Reads are scaled to the total, so uncut sequences can rise above 0 when many others are cut.
# Assays:
# Assay in all cases: uncleaved DNA left, log2 of reads against the no-enzyme library (log2 ratio); higher = less cleavage (more negative = more Rep cleavage of the k-mer); sequences stand for … in CTCGTCCG…ACCGGAGA
# [1] = system: T1, Rep nickase domain of Muscovy duck circovirus
# T1 sequence (protein, residues 1-111, tag omitted): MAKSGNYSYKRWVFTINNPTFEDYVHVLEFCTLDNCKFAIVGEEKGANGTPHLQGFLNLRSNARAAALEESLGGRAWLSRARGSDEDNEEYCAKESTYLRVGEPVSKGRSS
# Description: (§1)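 A pool of 90-nt single-stranded DNAs with seven random bases just before the constant AC of the nick site (name = the seven bases) was cut by 3 µM recombinant His6-SUMO-tagged Rep nickase domain (300 nM DNA, 50 mM HEPES pH 8.0, 50 mM NaCl, 1 mM MnCl2, 1 h, 37 °C, three replicates). Uncut DNA was amplified and sequenced.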
# [2] = system: T2, Rep nickase domain of banana bunchy top virus
# T2 sequence (protein, residues 1-94, tag omitted): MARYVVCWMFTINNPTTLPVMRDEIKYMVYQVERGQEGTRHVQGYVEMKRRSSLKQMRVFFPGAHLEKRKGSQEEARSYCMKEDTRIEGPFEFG
# Description: as §1
# [3] = system: T3, Rep nickase domain of cabbage leaf curl virus
# T3 sequence (protein, residues 1-116, tag omitted): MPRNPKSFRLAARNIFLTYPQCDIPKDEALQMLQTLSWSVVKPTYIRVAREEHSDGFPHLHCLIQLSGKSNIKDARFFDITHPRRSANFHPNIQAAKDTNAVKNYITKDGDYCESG
# Description: as §1
# [4] = system: T4, Rep nickase domain of chickpea chlorotic dwarf virus
# T4 sequence (protein, residues 1-124, tag omitted): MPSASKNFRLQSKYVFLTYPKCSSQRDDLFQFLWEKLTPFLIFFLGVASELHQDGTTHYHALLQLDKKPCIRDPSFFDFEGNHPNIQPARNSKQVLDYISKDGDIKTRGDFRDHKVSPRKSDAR
# Description: as §1
# [5] = system: T5, Rep nickase domain of faba bean necrotic yellows virus
# T5 sequence (protein, residues 1-98, tag omitted): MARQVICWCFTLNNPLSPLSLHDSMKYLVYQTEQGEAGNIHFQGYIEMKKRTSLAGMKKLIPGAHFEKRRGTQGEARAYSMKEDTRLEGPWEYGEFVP
# Description: as §1
# [6] = system: T6, Rep nickase domain of maize striate mosaic virus
# T6 sequence (protein, residues 1-117, tag omitted): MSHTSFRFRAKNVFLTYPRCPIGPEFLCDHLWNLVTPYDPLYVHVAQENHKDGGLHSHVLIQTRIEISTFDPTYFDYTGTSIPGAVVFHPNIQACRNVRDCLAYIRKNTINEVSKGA
# Description: as §1
# [7] = system: T7, Rep nickase domain of porcine circovirus 2
# T7 sequence (protein, residues 2-116, tag omitted): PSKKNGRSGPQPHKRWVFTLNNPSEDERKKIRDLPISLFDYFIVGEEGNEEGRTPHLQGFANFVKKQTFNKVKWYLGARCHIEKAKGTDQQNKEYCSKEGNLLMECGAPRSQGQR
# Description: as §1
# [8] = system: T8, Rep nickase domain of tomato golden mosaic virus
# T8 sequence (protein, residues 1-124, tag omitted): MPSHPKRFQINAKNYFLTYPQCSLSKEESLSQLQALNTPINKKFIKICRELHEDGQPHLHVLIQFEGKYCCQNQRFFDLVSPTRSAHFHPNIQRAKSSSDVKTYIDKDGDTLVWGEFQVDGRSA
# Description: as §1
# [9] = system: T9, Rep nickase domain of tomato yellow leaf curl virus
# T9 sequence (protein, residues 1-136, tag omitted): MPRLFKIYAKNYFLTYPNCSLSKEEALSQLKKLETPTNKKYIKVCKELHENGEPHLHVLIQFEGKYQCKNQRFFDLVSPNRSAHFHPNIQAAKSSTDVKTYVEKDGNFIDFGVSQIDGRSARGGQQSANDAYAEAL
# Description: as §1
# [10] = system: T10, Rep nickase domain of wheat dwarf virus
# T10 sequence (protein, residues 1-137, tag omitted): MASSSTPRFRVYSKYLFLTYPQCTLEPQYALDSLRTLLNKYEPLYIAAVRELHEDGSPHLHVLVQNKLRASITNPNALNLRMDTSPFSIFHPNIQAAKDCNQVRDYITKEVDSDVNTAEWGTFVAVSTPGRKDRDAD
# Description: as §1
Sequence,uncleaved DNA left (log2) [1],uncleaved DNA left (log2) [2],uncleaved DNA left (log2) [3],uncleaved DNA left (log2) [4],uncleaved DNA left (log2) [5],uncleaved DNA left (log2) [6],uncleaved DNA left (log2) [7],uncleaved DNA left (log2) [8],uncleaved DNA left (log2) [9],uncleaved DNA left (log2) [10]
GGACGGG,0.112,-0.0202,0.636,1.38,0.0382,1.68,0.194,-0.0259,-0.0455,0.0159
TATATAC,0.071,0.0551,0.134,-0.565,0.0125,-0.374,-0.00321,0.148,-0.0212,0.0161
CCCCCTC,-0.0898,-0.0809,-0.0792,-0.223,0.0428,-0.34,-0.245,-0.169,-0.264,-0.158
AGGATGT,0.0874,0.0478,0.448,1.28,0.0702,1.54,0.161,0.0721,-0.00054,0.0659
TGAAATG,0.00754,-0.0765,-0.286,-0.197,-0.0299,-0.615,0.0066,-0.0236,-0.0761,0.026
TTAGTGT,0.142,0.0767,0.00913,-0.367,0.0589,-0.468,0.127,0.0402,0.138,-0.00291
TTTCGCG,0.0532,-0.102,-0.705,0.442,0.021,-0.796,0.00692,-0.11,-0.179,-0.146
GTACAGT,0.078,0.146,0.427,0.835,0.0634,1.63,0.124,-0.01,0.101,0.141
CGGCAAA,0.0586,0.0359,0.0555,0.457,-0.121,0.258,-0.0746,-0.0632,0.0184,-0.1
ATCTTCA,-0.0978,-0.0757,-0.211,-1.4,-0.0343,-0.838,-0.397,-0.0194,-0.0149,0.0314
CAAGACG,-0.0313,0.00391,-0.804,-0.55,-0.0538,-1.2,0.0917,0.0367,0.0261,-0.184
GAACCTG,0.0112,0.0181,0.0402,0.293,-0.0736,1.07,0.022,-0.00677,-0.11,0.00223
GGGCGCC,0.134,0.00166,0.761,1.65,0.101,1.97,0.223,-0.0173,-0.0292,0.0582
TTCACTT,-0.159,-0.104,-0.0981,-2.19,-0.131,-0.135,-0.528,0.0188,0.06,-0.129
ATTAGAC,0.0317,0.0585,0.164,0.404,0.075,-0.441,0.168,0.0364,-0.0233,0.101
CTGGTAT,0.0456,-0.00803,0.21,0.775,-0.0328,1.38,0.0452,0.00446,-0.131,-0.108
CAGCTGC,-0.0838,0.0393,0.174,0.988,0.0178,1.16,0.0933,-0.171,-0.232,-0.0934
AGCATGG,0.0272,0.0756,-0.169,0.201,-0.0167,-0.00343,0.119,0.0189,-0.0213,0.158
ATAAAGG,-0.0189,-0.0208,0.145,0.898,-0.00391,0.0345,0.114,0.13,-0.098,0.0823
TGTATAC,0.131,0.115,0.438,0.662,0.0437,1.49,0.132,0.138,0.00468,0.0895
CGGCAGG,0.0934,0.196,0.0763,0.668,0.137,0.701,0.2,0.194,0.195,0.199
CGTATTA,-0.164,-0.099,-0.0389,-0.802,-0.0335,-0.304,-0.196,-0.00152,0.0596,0.0212
GCATTTG,-0.0051,-0.037,-0.559,-0.507,-0.0108,-1.1,0.126,-0.024,0.00477,-0.172
TATGAGG,0.163,0.0605,0.49,1.13,0.0864,1.14,0.206,0.127,0.0906,0.123
CAAGGTT,-0.00897,-0.0142,-0.14,0.459,-0.057,1.67,-0.0861,0.0167,-0.064,-0.0958
GTGACGG,-0.0079,0.0589,0.252,1.28,-0.0346,1.91,-0.00215,0.0156,-0.0519,0.00403
CTTACTT,0.0175,-0.0581,-0.215,-2.54,-0.0397,-0.502,-0.549,-0.163,-0.0758,-0.034
GCCCGGC,-0.079,-0.133,0.0227,0.371,-0.14,-0.252,-0.0242,-0.0794,-0.151,-0.241
CGGCAGT,-0.19,-0.0701,0.0333,0.601,-0.166,0.695,-0.0157,-0.207,-0.135,-0.175
CCTTGGC,-0.0752,-0.148,-0.293,-0.335,-0.00473,-0.9,-0.0494,-0.159,-0.135,-0.248
